Source: article PMC4336329 (PLoS ONE, 2015)
Among all 310,000 compounds or so, about 2,200 (0.71%) showed an effect of 50% or more. The effect is printed as a negative number. This is one part of the list.

These compounds were tested against human ether-à-go-go-related gene (hERG) potassium channel (human, UniProt Q12809) (assay: primary screen, population patch clamp on CHO cells stably expressing hERG).
Sequence of human ether-à-go-go-related gene (hERG) potassium channel (Q12809 whole entry, looked up): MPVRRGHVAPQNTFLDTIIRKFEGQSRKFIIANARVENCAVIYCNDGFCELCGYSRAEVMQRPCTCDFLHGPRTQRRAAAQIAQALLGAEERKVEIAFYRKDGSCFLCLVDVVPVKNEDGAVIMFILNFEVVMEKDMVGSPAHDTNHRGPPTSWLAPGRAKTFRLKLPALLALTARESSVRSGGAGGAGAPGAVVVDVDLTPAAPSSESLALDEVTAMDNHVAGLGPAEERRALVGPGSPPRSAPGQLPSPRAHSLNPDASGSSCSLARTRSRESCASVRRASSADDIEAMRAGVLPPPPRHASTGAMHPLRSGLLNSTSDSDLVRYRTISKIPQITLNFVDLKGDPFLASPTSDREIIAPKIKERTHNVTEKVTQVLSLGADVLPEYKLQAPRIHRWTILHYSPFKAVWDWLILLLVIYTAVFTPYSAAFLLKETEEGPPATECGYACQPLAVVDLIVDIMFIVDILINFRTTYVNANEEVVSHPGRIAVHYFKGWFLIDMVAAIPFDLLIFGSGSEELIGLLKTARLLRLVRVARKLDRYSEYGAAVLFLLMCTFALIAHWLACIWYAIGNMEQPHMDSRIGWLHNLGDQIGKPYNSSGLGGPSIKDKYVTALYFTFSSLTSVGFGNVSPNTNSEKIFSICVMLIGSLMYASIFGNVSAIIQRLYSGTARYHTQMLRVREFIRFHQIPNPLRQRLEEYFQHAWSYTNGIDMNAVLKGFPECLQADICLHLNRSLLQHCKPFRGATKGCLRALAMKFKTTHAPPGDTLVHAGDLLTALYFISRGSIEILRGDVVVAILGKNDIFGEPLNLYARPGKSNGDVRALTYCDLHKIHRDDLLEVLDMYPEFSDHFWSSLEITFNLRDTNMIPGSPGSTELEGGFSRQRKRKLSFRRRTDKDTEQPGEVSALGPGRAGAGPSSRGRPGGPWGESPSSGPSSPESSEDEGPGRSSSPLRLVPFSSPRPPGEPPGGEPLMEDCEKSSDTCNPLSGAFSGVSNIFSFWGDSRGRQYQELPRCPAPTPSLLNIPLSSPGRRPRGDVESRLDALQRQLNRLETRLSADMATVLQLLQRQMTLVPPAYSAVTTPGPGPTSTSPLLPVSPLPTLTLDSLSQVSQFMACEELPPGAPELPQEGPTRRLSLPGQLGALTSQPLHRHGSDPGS
`O=C(CSc1ncnc2c1oc1ccccc12)c1cccs1` was tested, and the “hERG current change (%, negative = inhibition) at 1uM” value was 12.4%.
`CCC(C)n1c(SCC(=O)Nc2cc(C(C)(C)C)nn2-c2ccccc2)nc2ccccc2c1=O` (centres unmarked) was tested, and the “hERG current change (%, negative = inhibition) at 1uM” value was 5.96%.
For `CCn1c(SCC(=O)NC2CCCC2)nnc1-c1ccco1`, the “hERG current change (%, negative = inhibition) at 1uM” value was 15.5%.
`COC(=O)C1=C(c2ccc(-c3ccccc3)c(F)c2)C[C@@H]2CC[C@H]1N2C(=O)N1CCCC1` was tested, and the “hERG current change (%, negative = inhibition) at 1uM” value was -5.13%.
With `COc1cccc(CN(C)C(=O)c2ccc3c(=O)n4c(nc3c2)CCC4)c1` the “hERG current change (%, negative = inhibition) at 1uM” value was 2.37%.
In the case of `COCCN(C(=O)c1ccco1)c1nnc(-c2ccc(F)cc2)s1`, the “hERG current change (%, negative = inhibition) at 1uM” value is reported as 11.7%.
`Cc1ccc(S(=O)(=O)Nc2ccc(-c3ccc4nncn4n3)cc2)cc1` was tested, and the “hERG current change (%, negative = inhibition) at 1uM” value was 24.9%.
In the case of `Cc1cc(C(=O)Nc2ccc(Br)cc2)cs1`, the “hERG current change (%, negative = inhibition) at 1uM” value is reported as -11.7%.
For `CCOC(=O)CNC(=O)c1cccs1`, the “hERG current change (%, negative = inhibition) at 1uM” value was 13.7%.
For `O=C(Cc1ccccc1)NCC(=O)OC(c1ccccc1)c1ccccc1`, the “hERG current change (%, negative = inhibition) at 1uM” value was 10.1%.
In the case of `O=C(Nc1nc2ccccc2[nH]1)c1cccs1`, the “hERG current change (%, negative = inhibition) at 1uM” value is reported as 10.8%.
`O=C(O)c1cc(-c2ccc(/C=N/Nc3ccc(Cl)cc3)o2)ccc1Cl` was tested, and the “hERG current change (%, negative = inhibition) at 1uM” value was 16.5%.
With `CNC(=S)N1C2CCCC1CC(NC(=O)c1ccc(F)cc1)C2` (centres unmarked) the “hERG current change (%, negative = inhibition) at 1uM” value was 12.4%.
For `Cc1cc(C)c(NC(=O)CS(=O)CC(=O)N2CCN(c3cccc(C)c3C)CC2)c(C)c1` (centres unmarked), the “hERG current change (%, negative = inhibition) at 1uM” value was 12.2%.
In the case of `CCOC(=O)Cc1csc(NC(=O)C(NC(=O)C2CCC(C)CC2)C(C)C)n1` (centres unmarked), the “hERG current change (%, negative = inhibition) at 1uM” value is reported as 18.7%.
`O=C(CSc1ncccn1)NCc1ccccc1Cl` was tested, and the “hERG current change (%, negative = inhibition) at 1uM” value was 4.91%.
In the case of `CCc1nnc(NC(=O)CSc2nnc(Cc3ccc(OC)cc3)o2)s1`, the “hERG current change (%, negative = inhibition) at 1uM” value is reported as 12.8%.
For `CC(/C=N/NC(=O)c1ccc(Br)cc1)=C\c1ccccc1`, the “hERG current change (%, negative = inhibition) at 1uM” value was 5.64%.
With `O=C(c1ccco1)N1CCN(c2c([N+](=O)[O-])nn(-c3ccc(Cl)cc3)[n+]2[O-])CC1` the “hERG current change (%, negative = inhibition) at 1uM” value was -45.1%.
With `CCO[C@@H]1OC(C(N)=O)=C[C@H](c2ccccc2)[C@H]1CCCO` the “hERG current change (%, negative = inhibition) at 1uM” value was 12.4%.
`CCC12CCCN3CCc4c(n(c5ccccc45)C(O)(C(=O)OC)C1)C32` (centres unmarked) was tested, and the “hERG current change (%, negative = inhibition) at 1uM” value was -2.18%.
For `CN1C(=O)CC(N2CCN(c3ccccc3)CC2)C1=O` (centres unmarked), the “hERG current change (%, negative = inhibition) at 1uM” value was 18.7%.
For `C=CCn1c(SCC(=O)NC2CCCC2)nc2c([nH]c3ccccc32)c1=O`, the “hERG current change (%, negative = inhibition) at 1uM” value was -16.9%.
In the case of `CCc1nnc(NC(=O)CSc2nc3ccccc3o2)s1`, the “hERG current change (%, negative = inhibition) at 1uM” value is reported as 7.02%.
`CNC(=S)N/N=C/c1cc(Br)c(OCc2ccncc2)c(OC)c1` was tested, and the “hERG current change (%, negative = inhibition) at 1uM” value was 15.4%.
With `O=C(c1ccc(COc2ccccc2Cl)o1)N1CCCC1` the “hERG current change (%, negative = inhibition) at 1uM” value was -3.16%.
For `Cc1ccccc1NC(=O)Cn1c(=O)n(Cc2ccccc2)c(=O)c2c(C)c(C)sc21`, the “hERG current change (%, negative = inhibition) at 1uM” value was 14%.
With `COC(=O)C1CCN(C(=O)c2ccc(OC3CCN(Cc4ccccn4)CC3)cc2)CC1` the “hERG current change (%, negative = inhibition) at 1uM” value was 7.84%.
In the case of `COc1ccc(S(=O)(=O)N(C)C2(C)CCS(=O)(=O)C2)cc1OC` (centres unmarked), the “hERG current change (%, negative = inhibition) at 1uM” value is reported as 5.78%.
For `CCN(CC)c1nc(N2CCOCC2)c(C#N)c2c1CN(C)CC2`, the “hERG current change (%, negative = inhibition) at 1uM” value was 6.78%.
For `COc1ccc(C(C)(C)C)cc1NC(=O)COC(=O)c1cnc(C)cn1`, the “hERG current change (%, negative = inhibition) at 1uM” value was -1.38%.
In the case of `COc1ccc(CCN2CC(C(=O)NCCCn3nc(C)cc3C)CCC2=O)cc1` (centres unmarked), the “hERG current change (%, negative = inhibition) at 1uM” value is reported as 0.894%.
`COC(=O)c1c(O)c2c([nH]c1=O)CCCC2` was tested, and the “hERG current change (%, negative = inhibition) at 1uM” value was 10%.
In the case of `Cc1nn(C)c(C(=O)NNC(=S)NCC(C)C)c1Cl`, the “hERG current change (%, negative = inhibition) at 1uM” value is reported as 11.6%.
`Cn1c(N)c(C(=O)COC(=O)c2ccc3c(c2)C(=O)N(c2ccc(Cl)cc2)C3=O)c(=O)n(C)c1=O` was tested, and the “hERG current change (%, negative = inhibition) at 1uM” value was 1.27%.
In the case of `Cn1nnnc1Sc1ncnc2scc(-c3ccc(C#N)cc3)c12`, the “hERG current change (%, negative = inhibition) at 1uM” value is reported as 9.96%.
With `CC(C)c1ccc(NC(=O)CCN2C(=O)c3ccc([N+](=O)[O-])cc3C2=O)cc1` the “hERG current change (%, negative = inhibition) at 1uM” value was 5.2%.
In the case of `O=C(CSCc1ccccc1)Nc1nccs1`, the “hERG current change (%, negative = inhibition) at 1uM” value is reported as 6.03%.
`O=C1S/C(=C/c2ccc(N3CCOCC3)o2)C(=O)N1Cc1ccc(F)cc1` was tested, and the “hERG current change (%, negative = inhibition) at 1uM” value was 1.2%.
For `COc1cc(C(=O)Nc2cccc(NC(=O)c3cccs3)c2)cc(OC)c1OC`, the “hERG current change (%, negative = inhibition) at 1uM” value was 15.8%.
For `OC(CCN1CCC2(CC1)OCCO2)C(F)(F)F` (centres unmarked), the “hERG current change (%, negative = inhibition) at 1uM” value was 2.04%.
For `CC(C)C(c1nnnn1Cc1ccc(F)cc1)N1CCSCC1` (centres unmarked), the “hERG current change (%, negative = inhibition) at 1uM” value was -10.8%.
For `CCn1cc(Br)c(C(=O)Nc2nccs2)n1`, the “hERG current change (%, negative = inhibition) at 1uM” value was 9.21%.
For `CCOC(=O)c1cc(-c2ccccc2)sc1NC(=O)CC`, the “hERG current change (%, negative = inhibition) at 1uM” value was 4.6%.
